# The list shows a part of the results.
# B1: PkBDPgamma (Plasmodium knowlesi) (protein)
# chain: SAINQIFLQNNVMDKCNDKRKRGERDWDCPTEKDVCIPDRRYQLCMMEITNLVDTDTHFHSDIIFRKSYSRRRLIYDVGGRGDLLLKKYNNVYSEDLCKDIKWSLQDFGDIIMGTDMEGIGYSLVVQNNLRSIFGTGTSAELDRKKWWNDHKKDIWKAMILSVKEKNRYSAWNCKEDVQIKVEPQIYRWIREWGRDYMSEFREQRRKLNEKCEDKLYYSTMLICTLPPCNNACKSYDEWITGKKKQWDVLSTKFSSVKKAQKIETENIARAYDILKQELNGFNEVTFENEINKRDKLYNYFCVCIVQEARKNTQENVKNVGSGVESKAPSSNPINEAVKSSSGEGKVQEDSAHRSVNEGEGKSSTNEADPGSQPGAAASGGGSGGGTGGGVDLAPQMLRELQETNAALQDVRELLRQQVKEITFLKNTVMECDACGGPLDRNLPPLAPLGPTGGWSHPQFEK
# What was measured:
# Assay in all cases: glycan array binding signal (z-score within array); higher = stronger binding
# Conditions in all cases: glycan notation: IUPAC condensed, linker removed
# [1] = biological target: Fuc(a1-2)Gal
# How it was run: (§1)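 Glycan array data came from 3228 arrays in the Consortium for Functional Glycomics database, and only arrays with an available protein sequence were kept. Glycan names were put into IUPAC-condensed notation, and columns mapping to the same glycan were averaged. The binding signal is a within-array Z-score, averaged across arrays of one protein sequence run at different concentrations or buffers and across linkers. A negative Z-score can be read as non-binding.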
# [2] = biological target: Fuc(a1-2)Gal(b1-3)GalNAc
# How it was run: as §1
# [3] = biological target: Fuc(a1-2)Gal(b1-3)GalNAc(a1-3)[Fuc(a1-2)]Gal(b1-4)Glc
# How it was run: as §1
# [4] = biological target: Fuc(a1-2)Gal(b1-3)GalNAc(a1-3)[Fuc(a1-2)]Gal(b1-4)GlcNAc
# How it was run: as §1
# [5] = biological target: Fuc(a1-2)Gal(b1-3)GalNAc(b1-3)Gal
# How it was run: as §1
# [6] = biological target: Fuc(a1-2)Gal(b1-3)GalNAc(b1-3)Gal(a1-4)Gal(b1-4)Glc
# How it was run: as §1
# [7] = biological target: Fuc(a1-2)Gal(b1-3)GalNAc(b1-4)[Neu5Ac(a2-3)]Gal(b1-4)Glc
# How it was run: as §1
# [8] = biological target: Fuc(a1-2)Gal(b1-3)GlcNAc
# How it was run: as §1
# [9] = biological target: Fuc(a1-2)Gal(b1-3)GlcNAc(b1-2)Man(a1-3)[Fuc(a1-2)Gal(b1-3)GlcNAc(b1-2)Man(a1-6)]Man(b1-4)GlcNAc(b1-4)GlcNAc
# How it was run: as §1
# [10] = biological target: Fuc(a1-2)Gal(b1-3)GlcNAc(b1-2)Man(a1-3)[Fuc(a1-2)Gal(b1-3)GlcNAc(b1-2)Man(a1-6)]Man(b1-4)GlcNAc(b1-4)[Fuc(a1-6)]GlcNAc
# How it was run: as §1
# [11] = biological target: Fuc(a1-2)Gal(b1-3)GlcNAc(b1-3)Gal(b1-4)Glc
# How it was run: as §1
# [12] = biological target: Fuc(a1-2)Gal(b1-3)GlcNAc(b1-3)GalNAc
# How it was run: as §1
# [13] = biological target: Fuc(a1-2)Gal(b1-3)GlcNAc(b1-3)[Fuc(a1-2)Gal(b1-3)GlcNAc(b1-6)]GalNAc
# How it was run: as §1
# [14] = biological target: Fuc(a1-2)Gal(b1-3)GlcNAc(b1-3)[Gal(b1-4)GlcNAc(b1-6)]Gal(b1-4)Glc
# How it was run: as §1
# [15] = biological target: Fuc(a1-2)Gal(b1-3)GlcNAc(b1-3)[Neu5Ac(a2-6)Gal(b1-4)GlcNAc(b1-6)]Gal(b1-4)Glc
# How it was run: as §1
# [16] = biological target: Fuc(a1-2)Gal(b1-3)GlcNAc6S
# How it was run: as §1
# [17] = biological target: Fuc(a1-2)Gal(b1-3)[Fuc(a1-4)]GlcNAc
# How it was run: as §1
# [18] = biological target: Fuc(a1-2)Gal(b1-3)[Fuc(a1-4)]GlcNAc(b1-2)Man(a1-3)[Fuc(a1-2)Gal(b1-3)[Fuc(a1-4)]GlcNAc(b1-2)Man(a1-3)]Man(b1-4)GlcNAc(b1-4)GlcNAc
# How it was run: as §1
# [19] = biological target: Fuc(a1-2)Gal(b1-3)[Fuc(a1-4)]GlcNAc(b1-2)Man(a1-3)[Fuc(a1-2)Gal(b1-3)[Fuc(a1-4)]GlcNAc(b1-2)Man(a1-6)]Man(b1-4)GlcNAc(b1-4)[Fuc(a1-6)]GlcNAc(b1-4)[Fuc(a1-6)]GlcNAc
# How it was run: as §1
# [20] = biological target: Fuc(a1-2)Gal(b1-3)[Fuc(a1-4)]GlcNAc(b1-3)[Fuc(a1-3)[Gal(b1-4)]GlcNAc(b1-6)]Gal(b1-4)Glc
# How it was run: as §1
# [21] = biological target: Fuc(a1-2)Gal(b1-3)[Fuc(a1-4)]GlcNAc(b1-3)[Gal(b1-4)GlcNAc(b1-6)]Gal(b1-4)Glc
# How it was run: as §1
# [22] = biological target: Fuc(a1-2)Gal(b1-4)Fuc(a1-3)]GlcNAc(b1-2)Man(a1-3)[Fuc(a1-2)Gal(b1-4)[Fuc(a1-3)]GlcNAc(b1-2)Man(a1-6)]Man(b1-4)GlcNAc(b1-4)GlcNAc
# How it was run: as §1
# [23] = biological target: Fuc(a1-2)Gal(b1-4)Glc
# How it was run: as §1
# [24] = biological target: Fuc(a1-2)Gal(b1-4)Glc6S
# How it was run: as §1
# [25] = biological target: Fuc(a1-2)Gal(b1-4)GlcNAc
# How it was run: as §1
# [26] = biological target: Fuc(a1-2)Gal(b1-4)GlcNAc(b1-2)Man
# How it was run: as §1
# [27] = biological target: Fuc(a1-2)Gal(b1-4)GlcNAc(b1-2)Man(a1-3)[Fuc(a1-2)Gal(b1-4)GlcNAc(b1-2)Man(a1-6)]Man(b1-4)GlcNAc(b1-4)GlcNAc
# How it was run: as §1
# [28] = biological target: Fuc(a1-2)Gal(b1-4)GlcNAc(b1-2)Man(a1-3)[Fuc(a1-2)Gal(b1-4)GlcNAc(b1-2)Man(a1-6)]Man(b1-4)GlcNAc(b1-4)[Fuc(a1-6)]GlcNAc
# How it was run: as §1
# [29] = biological target: Fuc(a1-2)Gal(b1-4)GlcNAc(b1-2)[Fuc(a1-2)Gal(b1-4)GlcNAc(b1-4)]Man(a1-3)[Fuc(a1-2)Gal(b1-4)GlcNAc(b1-2)Man(a1-6)]Man(b1-4)GlcNAc(b1-4)GlcNAc
# How it was run: as §1
# [30] = biological target: Fuc(a1-2)Gal(b1-4)GlcNAc(b1-3)Gal(b1-4)GlcNAc
# How it was run: as §1
# [31] = biological target: Fuc(a1-2)Gal(b1-4)GlcNAc(b1-3)Gal(b1-4)GlcNAc(b1-2)Man(a1-3)[Fuc(a1-2)Gal(b1-4)GlcNAc(b1-3)Gal(b1-4)GlcNAc(b1-2)Man(a1-6)]Man(b1-4)GlcNAc(b1-4)GlcNAc
# How it was run: as §1
# [32] = biological target: Fuc(a1-2)Gal(b1-4)GlcNAc(b1-3)Gal(b1-4)GlcNAc(b1-3)Gal(b1-4)GlcNAc
# How it was run: as §1
# [33] = biological target: Fuc(a1-2)Gal(b1-4)GlcNAc(b1-3)GalNAc
# How it was run: as §1
# [34] = biological target: Fuc(a1-2)Gal(b1-4)GlcNAc(b1-3)[Fuc(a1-2)Gal(b1-4)GlcNAc(b1-6)]GalNAc
# How it was run: as §1
# [35] = biological target: Fuc(a1-2)Gal(b1-4)GlcNAc(b1-3)[Fuc(a1-3)[Gal(b1-4)]GlcNAc(b1-6)]Gal(b1-4)Glc
# How it was run: as §1
# [36] = biological target: Fuc(a1-2)Gal(b1-4)GlcNAc(b1-6)GalNAc
# How it was run: as §1
# [37] = biological target: Fuc(a1-2)Gal(b1-4)GlcNAc6S
# How it was run: as §1
# [38] = biological target: Fuc(a1-2)Gal(b1-4)[Fuc(a1-3)]GlcNAc
# How it was run: as §1
# [39] = biological target: Fuc(a1-2)Gal(b1-4)[Fuc(a1-3)]GlcNAc(b1-2)Man(a1-3)[Fuc(a1-2)Gal(b1-4)[Fuc(a1-3)]GlcNAc(b1-2)Man(a1-6)]Man(b1-4)GlcNAc(b1-4)[Fuc(a1-6)]GlcNAc
# How it was run: as §1
# [40] = biological target: Fuc(a1-2)Gal(b1-4)[Fuc(a1-3)]GlcNAc(b1-2)[Fuc(a1-2)Gal(b1-4)[Fuc(a1-3)]GlcNAc(b1-4)]Man(a1-3)[Fuc(a1-2)Gal(b1-4)[Fuc(a1-3)]GlcNAc(b1-2)Man(a1-6)]Man(b1-4)GlcNAc(b1-4)GlcNAc
# How it was run: as §1
# [41] = biological target: Fuc(a1-2)Gal(b1-4)[Fuc(a1-3)]GlcNAc(b1-3)Gal(b1-4)[Fuc(a1-3)]GlcNAc
# How it was run: as §1
# [42] = biological target: Fuc(a1-2)Gal(b1-4)[Fuc(a1-3)]GlcNAc(b1-3)Gal(b1-4)[Fuc(a1-3)]GlcNAc(b1-3)Gal(b1-4)[Fuc(a1-3)]GlcNAc
# How it was run: as §1
# [43] = biological target: Fuc(a1-2)Gal(b1-4)[Fuc(a1-3)]GlcNAc(b1-3)GalNAc
# How it was run: as §1
# [44] = biological target: Fuc(a1-2)Gal(b1-4)[Fuc(a1-3)]GlcNAc(b1-3)[Neu5Ac(a2-6)Gal(b1-4)GlcNAc(b1-6)]Gal(b1-4)Glc
# How it was run: as §1
# [45] = biological target: Fuc(a1-2)Gal3S(b1-4)GlcNAc
# How it was run: as §1
binder,measurement,setting,value
B1,glycan array binding signal (z-score),[1],0.205
same,glycan array binding signal (z-score),[2],-0.399
same,glycan array binding signal (z-score),[3],-0.318
same,glycan array binding signal (z-score),[4],-0.282
same,glycan array binding signal (z-score),[5],-0.581
same,glycan array binding signal (z-score),[6],-0.02
same,glycan array binding signal (z-score),[7],-0.088
same,glycan array binding signal (z-score),[8],-0.138
same,glycan array binding signal (z-score),[9],0.35
same,glycan array binding signal (z-score),[10],0.201
same,glycan array binding signal (z-score),[11],-0.455
same,glycan array binding signal (z-score),[12],0.928
same,glycan array binding signal (z-score),[13],0.3
same,glycan array binding signal (z-score),[14],-0.355
same,glycan array binding signal (z-score),[15],-0.463
same,glycan array binding signal (z-score),[16],-0.604
same,glycan array binding signal (z-score),[17],0.064
same,glycan array binding signal (z-score),[18],0.339
same,glycan array binding signal (z-score),[19],-0.387
same,glycan array binding signal (z-score),[20],-0.247
same,glycan array binding signal (z-score),[21],-0.063
same,glycan array binding signal (z-score),[22],0.212
same,glycan array binding signal (z-score),[23],-0.028
same,glycan array binding signal (z-score),[24],-0.188
same,glycan array binding signal (z-score),[25],-0.067
same,glycan array binding signal (z-score),[26],0.275
same,glycan array binding signal (z-score),[27],-0.211
same,glycan array binding signal (z-score),[28],-0.084
same,glycan array binding signal (z-score),[29],-0.391
same,glycan array binding signal (z-score),[30],0.178
same,glycan array binding signal (z-score),[31],0.581
same,glycan array binding signal (z-score),[32],0.551
same,glycan array binding signal (z-score),[33],1.14
same,glycan array binding signal (z-score),[34],0.417
same,glycan array binding signal (z-score),[35],-0.305
same,glycan array binding signal (z-score),[36],-0.358
same,glycan array binding signal (z-score),[37],-0.426
same,glycan array binding signal (z-score),[38],-0.073
same,glycan array binding signal (z-score),[39],-0.35
same,glycan array binding signal (z-score),[40],0.541
same,glycan array binding signal (z-score),[41],-0.062
same,glycan array binding signal (z-score),[42],-0.273
same,glycan array binding signal (z-score),[43],-0.008
same,glycan array binding signal (z-score),[44],-0.309
same,glycan array binding signal (z-score),[45],0.281
